Measurements from the supplement of paper PMC11417369.
± gives the standard deviation of the averaged measurements. This is one part of the list.

System: PfAP2-I AP2 domain 3 (GST-tagged)
Assay: gcPBM binding intensity (ln(normalized median fluorescence intensity)); higher = stronger DNA binding
In short: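 GST-tagged P. falciparum DNA-binding domains, expressed in E. coli (about 25 μg on average), were applied for 1 h to an Agilent 4 × 180k array of primer-extended double-stranded 36-bp intergenic genomic probes plus negative controls. The binding buffer was 1× PBS with 1% milk, 0.2 mg/ml BSA, 0.5% salmon testes DNA and 0.03% Triton X-100. Bound protein was detected with Alexa488 anti-GST antibody and scanned at 488 nm. Binding intensity is the highest Masliner-normalised natural-log median intensity across replicate spots of either probe orientation.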

| Sequence | gcPBM binding intensity (ln) |
| --- | --- |
| ATATATATATATAATACACACATAAATGAATATATA [CACACA_site316] | 9.11 ± 0.11 |
| GTGATTTCTATGAATTGTACTTAAATATAGTTATAT [XGTACX_site231] | 7.78 ± 0.42 |
| TTATAGACATATATAGGTACACATATTTTCAATCCC [XGTACX_site8230] | 7.83 ± 0.48 |
| ATTTATTAATCATATACACACATATATTTGTATTTA [CACACA_site1336] | 7.67 ± 0.49 |
| TATTTTTTTAAAATAGGTACACAATCAAACATTTAT [XGTACX_site8785] | 7.95 ± 0.42 |
| ACCTCATAATATTTAACACACAAAATTATCTGTATG [CACACA_site5015] | 8.02 ± 0.56 |
| CTTTTTTTTTTGTATTGTACTTTATTTTTACATCGT [XGTACX_site2918] | 8.1 ± 0.45 |
| ATTTTTAATTTTTTCACACATATATTTAAAATAAAA [CACACA_site4799] | 7.94 ± 0.49 |
| ATTCTAATTTTATGAAACGATTATTTTGAATTCATT [XGTACX_negctrl_site578] | 7.68 ± 0.51 |
| ATAAAAAAAAATATATGTACATATATAAATTGATAT [XGTACX_site7409] | 7.92 ± 0.76 |
| GATTACCTTTTTTTTTTTTTTTTTTTTTTTTTTTTC [CACACA_negctrl_site147] | 7.47 ± 0.69 |
| TGAAATGAAAGAACAGCACACATATATATTATATAT [CACACA_site8613] | 7.86 ± 0.61 |
| TATATTTTTTAAAAAAGTACAAAGTAATTATTGATT [XGTACX_site2420] | 7.86 ± 0.42 |
| GTAGTACATTCTAGAATACACACCTATATATATATA [CACACA_site522] | 9.38 ± 0.43 |
| ATATGAAAAACTTCATGTACTTATTATAAAATATAA [XGTACX_site2725] | 7.58 ± 0.29 |
| TTCTTAAAAAATCAAACACACATATATAAATACATA [CACACA_site5301] | 7.68 ± 0.12 |
| AAAAAATATAAAAAAACACACAAAAAAAAAAAAAAA [CACACA_site1382] | 7.96 ± 1 |
| CCCCATTTATCTTAAGCATGCCATGGTTTTAGATAT [TGCATGCA_site24] | 8.36 ± 0.47 |
| AAAGACGTTTATAAATGTACATACACTTTAAAAGTT [XGTACX_site8753] | 7.67 ± 0.66 |
| ATAAAAAAAAAAAATACACACATATATATATATATA [CACACA_site1709] | 9.38 ± 0.37 |
| CATATATACAGTAACACACACAAAAAAATATGAATA [CACACA_site3996] | 7.83 ± 0.57 |
| TTATTTATTTATTATAGTTCACTTGAAAATACAAGA [CACACA_negctrl_site1480] | 7.69 ± 0.57 |

| Sequence | gcPBM binding intensity (ln) |
| --- | --- |
| AATAGTGTCATAAAAACTATTATCATATAATGTGAA [CACACA_negctrl_site1578] | 7.63 ± 0.5 |
| TAATTTATAACACGCGCACACATATATATATAGTAA [CACACA_site121] | 8.09 ± 0.41 |
| TTTCTTTTTAACTCTTACATAATAGGTGGTAGAAGG [TGCATGCA_negctrl_site176] | 8.07 ± 0.3 |
| TTGTTGTGTATTATCGTGCACATAATATAAAAGATT | 11.11 ± 0.078 |
| CAGAAATATTCTTATACACACTGTTCTTATATTCCT [CACACA_site4318] | 7.79 ± 0.64 |
| AATATATATATAAATAGTACATATAAAGAGAATTTT [XGTACX_site3168] | 7.97 ± 0.4 |
| TTTATCTTTTTTTGTTGTACAGATGTTTATATTTTA [XGTACX_site4065] | 7.91 ± 0.62 |
| ATTAAAACAAAATGTACACACATATAATTTAATGAC [CACACA_site878] | 7.89 ± 0.39 |
| AATAACATTATTTTATGTACACATGAAAAATAAAAT [XGTACX_site4657] | 7.85 ± 0.34 |
| TGATATTTCATCATAGTGCAATATGGCATATAAATA [GTGCAC_site9433] | 10.8 ± 0.39 |
| TGTAATAAACTACTTTTTTTTTTTTTTTTTTTTTTT [CACACA_negctrl_site1021] | 9.67 ± 0.13 |
| AATATCAAAATAACATGTACATGTTATATTTTATTT [XGTACX_site5891] | 7.54 ± 0.49 |
| GTATATATCTCAGAGCATAATAGTATAATTCGGTCA [CACACA_negctrl_site876] | 7.63 ± 0.48 |
| AATTATTTTAGAAACACACAAATTAGAAAAAACATA [CACACA_site7673] | 7.71 ± 0.4 |
| TAACACCAAACTAAATGTACACACATACATAAATAT [XGTACX_site2201] | 7.79 ± 0.5 |
| TCTTATATGATATTTATTTATTTATTTATTTATTCA [GTGCAC_negctrl_site686] | 7.42 ± 0.56 |
| TTTATTTTTTGTGGCACACAGAAGAAACAAGAACAA [CACACA_site1696] | 9.11 ± 0.099 |
| AATGAATAATTATTTTGTACATAATATTATATTTAT [XGTACX_site5350] | 7.63 ± 0.5 |
| TAAATGTGAACAATAGAAGTAATAAGAAGAATAAAA [CACACA_negctrl_site1080] | 7.83 ± 0.7 |
| AATAGTAATTTGAATACACACAATAATATATTTATA [CACACA_site7055] | 7.54 ± 0.5 |
| TATTGTTTTTTTTACTGTACACAAGTAAATGAAAAA [XGTACX_site790] | 8.15 ± 0.28 |
| AAAAAATTCAAAAGGTGTACAACATTATATTATTCC [XGTACX_site5118] | 7.91 ± 0.49 |
